Assay results from the supplement of paper PMC10126150.
Sequences with one replicate were seen in a single cluster, so their values are uncertain.

Tested on: ATP
Experiment: switch fluorescence ratio, 500 uM ATP over buffer (Cy3 cluster intensity, sum of 5 cycles each) (fold (ratio)); higher = stronger signal-on switching upon ATP binding; sequences stand for … in TCGTCGGCAGCGTCAGATGTGTATAAGAGACAGTTTTTTTTTTTTTTTTTTTTTTTTT…TC
Settings: aptamer strand: ATP DNA aptamer (quencher-CACCTGGGGGAGTATTGCGGAGGAAGG + anchor), 100 nM annealed; ATP concentration: 500 uM; one replicate
Procedure, shortened: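 After annealing to 100 nM quencher-labelled ATP aptamer, Cy3-labelled switching-strand clusters on a modified Illumina MiSeq flow-cell were imaged in selection buffer. A second image followed after 15 min with 500 uM ATP at 22 °C, and five such buffer/ATP cycles were done, each separated by NaOH stripping and re-annealing. The fluorescence ratio, averaged per switch-domain sequence, is summed target-cycle over summed buffer-cycle Cy3 intensity per cluster, with clusters outside 100-1000 RFU excluded.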
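Further: ATP exposure 15 min at 22 °C before imaging.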

Sequence	switch fluorescence ratio
CTAAATCTTG	1.02
AGCGGTGACG	1.06
CGTCCGGTCT	1.03
CCTAACCTTT	1.04
CCCCCCACGT	1.61
GTATGTCGTG	0.995
ACAGACATCA	1.06
GGGTCGAAC	1.01
GGCTAGAGGT	0.983
CTGGGCATTT	1.01
CAGGAACTCT	1.02
TGGGGAGGG	0.964
CGGTTCCCGG	1.02
ACTTTCAT	1.06
TGAGCTACG	1.07
TAACGGGGAG	0.965
GGCTGGGACA	1.03
GTTTACGTGC	1.05
GATGGGGGT	0.991
ATCAGGCTGA	0.986
GTGTAACTCC	1.01
GGTGAGGTAA	1.02
GATTCCGACT	1.15

Sequence	switch fluorescence ratio
TCTCAAGTAT	1
TCGGCAACCC	1.57
TAAATCTGTT	1.05
GCTCGATTTT	1.02
TAGCAAAATA	0.981
CAAGAAGTTC	0.997
TAATGATAAG	0.983
CGGTTCAGGA	0.984
CTGGTGTTGG	1.04
CAGTGCCGAA	0.999
GCGGTGTTCC	1.08
GAAGTCCGTT	0.966
CTCGGTGGCC	0.992
CAAGGTCTTT	1.03
CATTGAGCAA	3.55
CCCGTCCATT	1.02
ATACTCAGTC	1.01
AGGGATTTG	1
GCACCGAGTT	0.996
GATCGCAGTG	0.985
CCATTCACAG	1.02
AGTCCTTCAC	1.24
CAGTCAAGAG	1.09

Sequence	switch fluorescence ratio
CCGATTGAAG	1.09
TGCTACTGTA	1.11
ACAACTTTGG	1.02
TTTCACCTGT	1.04
TTCATGTATG	0.983
ATATGTTACG	1.06
CCATTGTGCC	0.948
CGGCCGTCCT	1.03
GGTGTGCCCT	1.05
GTACTGAAGC	1.04
GATCCATGGT	0.997
TTGGGGCCTA	0.973
AGGGAGCTCA	1.03
CCTTGTCCGT	1.08
CGGTAGCGCT	1.01
AGGGACCTCA	1
AACCTGTAAT	1.01
CATGTGCCGC	1.01
ATAAGGGGCC	0.988
TGTTATGGGG	0.977
CGCACGGTAC	2.83
GTGAAGACGC	1.05
ACACCTGACC	2.01

Sequence	switch fluorescence ratio
TGACCTATAG	0.99
GCCTCCGTAT	3.75
CCGTGTTTGC	1.21
TGAGTAAAAT	1
CTGGCCCTCT	1.03
GTTATGTGCT	0.974
TTAGTTTTT	0.994
TACTTGACCC	1.26
GGTACCGGCC	1.13
CACATCAGTG	1.02
CGGTAGAATA	0.978
GAGTAATTGG	0.997
GGATTGTGGG	1.01
CGAAATGCGT	0.995
ATAGTCCTGT	0.999
GCCGCAGCGT	1.3
TTATGGAGAC	1.05
GGTTTGTAT	0.947
TATATGGTCT	0.99
AAGGAAGCGC	0.996
AAGTGAAG	1.02
TCGGATAGTT	1.01
AGTTCTAAGG	1.01

Sequence	switch fluorescence ratio
CGAGAAGCG	0.994
GTCTGGATAG	1.02
GGCCTGCTGT	0.982
TGAGTAAGAG	1
AAGCTCGACC	1.07
GAGCGAGTTG	0.985
CCATTGAAA	1.01
TTATTTCTAG	0.996
TAACGTGCCC	0.957
GGTTGAACGG	0.958
TAATCCGTGC	1.27
TTGAGAGACA	0.985
CGAACCTGCT	1.01
AGGAAACAC	1.03
GTAAATTGAC	1.02
AGACTTCAGG	0.963
GCCGAACATG	1.05
CAGGGCACGC	1.03
AGTTGGGACA	1.02
ATAGGGCGCG	1.05
AGAGCGTGCC	0.991
CATGGTACGA	1.07
CATCACCGTT	1.01

Sequence	switch fluorescence ratio
TATTGCCTAG	0.957
CATTCCCTGT	0.993
CTTCAACCGA	1.3
CTCAGCGCGT	1.05
ATCGTTTTGC	1.01
GCAATGTTTT	0.998
TCTCGGATTA	1.03
GGCTGCGGGA	1.03
TCGGGTAACT	1.02
GCGTAGGAAA	0.935
GCCCGCGAAC	6.92
TTTGAAAAT	1.36
TACAGGTCCG	1
CCTGGAGGGA	1
AATTTTCTTG	0.926
GTTGTATTCG	0.931
GTTGCCCAGG	3.14
TATGGTAATG	0.986
CTTTTATGTG	0.935
TCATTGATTC	0.997
GTATGTTTTG	0.981
CACCGTAAGA	1.68
CAACTATTCG	0.99

Sequence	switch fluorescence ratio
TGGGCCAATG	1.03
ACCAAACGCG	1.47
CACCAGGGGA	1.11
GAGGTATCAA	1.01
TTACTTTAGC	0.979
TTGCACGTGA	1.09
CAGGAGCAGC	0.928
GGTAGCGCGG	0.968
CTATGTACAT	1.03
ATCGGGTACT	1.03
CGCAGGTATT	1.07
GCCAGAATCA	0.975
TAAGGTCTCC	0.991
GGCCTGGTAG	0.989
CCGTTCTATC	1.42
TGACTTTATT	0.998
ACCCATTTCA	1.06
CACACTGCGG	1.02
GTGGGGTCAG	0.947
